# Measurements published in PubChem BioAssay AID2528 (National Center for Advancing Translational Sciences (NCATS), 2010).
# Among all 350,000 compounds or so, about 700 (0.2%) were called active. Calls follow the shape of the dose curve; as a rule, active = well fitted inhibition curve with a large enough effect; inconclusive = small, poorly fitted or top-dose-only effect; inactive = flat fitted curve, though single readings scatter. This is a selection; strong and weak results do not stand in their true shares. The source holds several records for some structures; these can differ, active in one and inactive in another.
# Target: RecQ-like DNA helicase BLM (Homo sapiens) (UniProt P54132)
# Experiment: qHTS Assay for Inhibitors of Bloom's syndrome helicase (BLM); also: nearly all actives have a fitted effect of over 35% in size;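 as to activity change, negative = inhibition: plate controls were vehicle for no effect and no enzyme for full effect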
# Conditions: recombinant BLM DNA unwinding, fluorescence dequenching; series mostly up to 56.1 µM; activity change, negative = inhibition: at the top concentration
# Potency is read from the fitted curve at half-maximal effect.
# Sequence of UniProt P54132 (P54132 whole entry, looked up): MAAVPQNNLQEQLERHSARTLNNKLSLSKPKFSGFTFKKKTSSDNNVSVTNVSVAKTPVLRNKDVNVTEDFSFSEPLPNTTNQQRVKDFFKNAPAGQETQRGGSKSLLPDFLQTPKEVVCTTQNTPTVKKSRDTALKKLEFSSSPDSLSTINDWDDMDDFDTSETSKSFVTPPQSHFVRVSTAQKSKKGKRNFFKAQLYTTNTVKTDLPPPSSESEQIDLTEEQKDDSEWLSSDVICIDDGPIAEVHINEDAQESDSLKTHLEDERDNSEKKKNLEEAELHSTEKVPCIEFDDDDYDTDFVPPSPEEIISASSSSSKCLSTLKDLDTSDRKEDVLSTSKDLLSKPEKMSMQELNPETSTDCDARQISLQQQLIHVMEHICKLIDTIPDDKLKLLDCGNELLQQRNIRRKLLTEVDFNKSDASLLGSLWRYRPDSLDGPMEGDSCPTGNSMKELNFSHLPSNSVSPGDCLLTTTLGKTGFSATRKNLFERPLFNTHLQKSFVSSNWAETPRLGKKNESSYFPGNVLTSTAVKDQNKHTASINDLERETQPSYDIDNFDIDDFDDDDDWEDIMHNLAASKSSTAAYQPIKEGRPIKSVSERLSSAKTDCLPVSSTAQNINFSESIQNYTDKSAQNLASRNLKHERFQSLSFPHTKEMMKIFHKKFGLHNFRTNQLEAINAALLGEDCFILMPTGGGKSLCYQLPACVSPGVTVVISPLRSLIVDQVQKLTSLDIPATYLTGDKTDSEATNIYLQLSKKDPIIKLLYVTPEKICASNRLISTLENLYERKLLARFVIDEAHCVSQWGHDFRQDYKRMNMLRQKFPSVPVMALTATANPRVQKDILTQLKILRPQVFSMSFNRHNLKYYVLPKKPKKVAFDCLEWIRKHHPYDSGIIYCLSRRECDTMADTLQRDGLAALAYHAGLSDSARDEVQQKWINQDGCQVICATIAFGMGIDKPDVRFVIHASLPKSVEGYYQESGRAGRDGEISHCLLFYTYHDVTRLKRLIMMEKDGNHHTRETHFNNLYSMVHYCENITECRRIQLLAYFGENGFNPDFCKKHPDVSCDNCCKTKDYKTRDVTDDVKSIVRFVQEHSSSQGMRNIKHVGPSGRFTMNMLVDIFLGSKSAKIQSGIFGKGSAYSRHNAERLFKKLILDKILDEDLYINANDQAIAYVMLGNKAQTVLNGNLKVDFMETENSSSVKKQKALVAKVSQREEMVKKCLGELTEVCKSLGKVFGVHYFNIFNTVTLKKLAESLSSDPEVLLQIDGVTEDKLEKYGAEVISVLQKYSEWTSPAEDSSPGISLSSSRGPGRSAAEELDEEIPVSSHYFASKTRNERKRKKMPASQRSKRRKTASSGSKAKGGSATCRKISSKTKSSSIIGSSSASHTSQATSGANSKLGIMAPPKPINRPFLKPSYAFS
Structure (SMILES),Potency,"activity change, negative = inhibition"
Nc1ccc2c(c1Cl)C(=O)c1ccc(N)c(Cl)c1C2=O,active: 14.1 µM,–
CC(=O)SC1CC2=CC(=O)CCC2(C)C2CCC3(C)C(CCC34CCC(=O)O4)C12 (stereo unspecified),–,inactive: -10.3%
COC(=O)C1=C(C)NC(C)=C(C(=O)OCCN(C)Cc2ccccc2)C1c1cccc([N+](=O)[O-])c1 (stereo unspecified),inactive,–
NCCCC(N)(C(=O)O)C(F)F (stereo unspecified),–,inactive: -6.85%
c1ccc([C@@H]2CN3CCSC3=N2)cc1,–,inactive: 1.05% [at 21.4 µM]
Cc1ccccc1C(OCCN(C)C)c1ccccc1 (stereo unspecified),inactive,–
COC(=O)C1=C(C)NC(C)=C([N+](=O)[O-])[C@@H]1c1ccccc1C(F)(F)F,inactive,–
CC(C)(C)NCC(O)c1cc(O)cc(O)c1 (stereo unspecified),inactive,–
CC[C@@]1(O)CC2CN(CCc3c([nH]c4ccccc34)[C@](C(=O)OC)(c3cc4c(cc3OC)N(C)C3[C@@](O)(C(=O)OC)C(OC(C)=O)[C@]5(CC)C=CCN6CC[C@@]43C65)C2)C1 (stereo partly specified),–,inactive: -14.2%
CC/C(=C(\c1ccccc1)c1ccc(OCCN(C)C)cc1)c1ccccc1,inactive,–
O=C(O)c1cccnc1C(=O)O,inactive,–
CN1CCC[C@@H]1CCO[C@](C)(c1ccccc1)c1ccc(Cl)cc1,inactive,–
N#Cc1c2nc3ccccc3nc2n2cc(NC(=O)c3ccc(F)cc3)ccc12,active: 12.6 µM,–
COCCc1ccc(OCC(O)CNC(C)C)cc1 (stereo unspecified),inactive,–
COc1ccc(N2Cc3cccc(C(=O)O)c3C2=O)cc1,active: 15.8 µM,–
CCC(C)C(=O)OC1CCC=C2C=CC(C)C(CCC3CC(O)CC(=O)O3)[C@@H]21 (stereo partly specified),–,inactive: -5.58%
Fc1cc(F)c2nc(Nc3nc4cc5c(cc4s3)OCO5)sc2c1,active: 10 µM,–
O=C(O)C1(C(=O)O)CCC1.[NH2-].[NH2-].[Pt+2],–,inactive: -5.86%
CCCSC1=N/C(=C\C=C\c2ccco2)C(=O)S1,active: 20 µM,–
C=C[C@@]1(C)CC(=O)[C@@]2(O)[C@@]3(C)[C@@H](O)CCC(C)(C)[C@@H]3[C@H](O)[C@H](OC(C)=O)[C@@]2(C)O1,–,inactive: 3.63%
Nc1ncnc2c1ncn2C1CCCO1 (stereo unspecified),–,inactive: -1.67%
N[C@@H](Cc1ccc(O)c(I)c1)C(=O)O,–,inactive: 1.78%
NC(Cc1c[nH]c2ccccc12)C(=O)O (stereo unspecified),–,inactive: 2.5%
Nc1nc(Nc2ccccc2)nc2c1ncn2[C@@H]1O[C@@H](CO)[C@H](O)[C@H]1O,–,inactive: -4.28%

Structure (SMILES),Potency,"activity change, negative = inhibition"
N[C@H](C(=O)N[C@@H]1C(=O)N2C(C(=O)O)=C(Cl)CS[C@@H]12)c1ccccc1,inactive,–
CN(C)c1ccc(C(=C2C=CC(=[N+](C)C)C=C2)c2ccc(N(C)C)cc2)cc1,–,inactive: -29.6%
Oc1ccc(NCc2ccccc2OCc2ccccc2)cc1,–,inactive: -11%
CC(=O)OCC(=O)[C@@]1(O)CC[C@H]2[C@@H]3CCC4=CC(=O)CC[C@]4(C)[C@@H]3C(=O)C[C@@]21C,–,inactive: 4.86%
CC(C)(C)c1ccc(C(O)CCCN2CCC(C(O)(c3ccccc3)c3ccccc3)CC2)cc1 (stereo unspecified),inactive,–
CCCN1C[C@H](CSC)C[C@H]2c3cccc4[nH]cc(c34)C[C@@H]21,–,inactive: 0.436% [at 21.4 µM]
Nc1c(N=Nc2ccc(-c3ccc(N=Nc4cc(S(=O)(=O)O)c5ccccc5c4N)cc3)cc2)cc(S(=O)(=O)O)c2ccccc12,active: 3.98 µM,–
CCCCNc1c(C(=O)OCC)c(C)nc2c1cnn2CC,inactive,–
COC1=C(N)C(=O)c2nc(-c3nc(C(=O)O)c(C)c(-c4ccc(OC)c(OC)c4O)c3N)ccc2C1=O,active: 3.55 µM,–
COCCOC(=O)C1=C(C)NC(C)=C(C(=O)OC(C)C)[C@H]1c1cccc([N+](=O)[O-])c1,–,inactive: -6.31% [at 21.4 µM]
CC[N+](CC)(CC)CC(=O)Nc1c(C)cccc1C,inactive,–
CC[C@H](C)[C@H]1O[C@]2(CC[C@@H]1C)C[C@@H]1C[C@@H](C/C=C(\C)[C@H](O[C@@H]3C[C@H](OC)[C@H](O[C@@H]4C[C@H](OC)[C@@H](O)[C@H](C)O4)[C@H](C)O3)[C@@H](C)/C=C/C=C3\CO[C@@H]4[C@H](O)C(C)=C[C@@H](C(=O)O1)[C@]34O)O2,–,inactive: -2.21%
NC(N)=Nc1nc(CSCC/C(N)=N/S(N)(=O)=O)cs1,inactive,–
CC1=C(/C=C/C(C)=C/C=C/C(C)=C\C(=O)O)C(C)(C)CCC1,inactive,–
CCCCN(C)C1=CC2=CC(=C(C#N)C#N)CCC2CC1 (stereo unspecified),active: 12.6 µM,–
O=S(=O)(O)O,–,inactive: -1.47%
C/C(=C\c1ccc(C(=O)O)cc1)c1ccc2c(c1)C(C)(C)CCC2(C)C,inactive,–
C[C@]12C=CC(=O)C=C1CC[C@@H]1[C@H]3C[C@@H](O)[C@](O)(C(=O)CO)[C@@]3(C)C[C@H](O)[C@]12F,–,inactive: 2.94% [at 21.4 µM]
Cn1nc(-c2ccccn2)nc2c(=O)n(C)c(=O)nc1-2,active: 1 µM,–
CN(Cc1cnc2nc(N)nc(N)c2n1)c1ccc(C(=O)N[C@@H](CCC(=O)O)C(=O)O)cc1,inactive,–
CCOc1ccc2nc3cc(N)ccc3c(N)c2c1,–,inactive: -22.7%
CO/N=C(/C(=O)NC1C(=O)N2C(C(=O)O)=C(CSc3nc(=O)c(O)nn3C)CSC12)c1csc(N)n1 (stereo unspecified),inactive,–
COc1cc2c(CCNC(C)=O)c[nH]c2cc1Cl,–,inactive: -3.77%
O=C(O)C1=CCCN(CCON=C(c2ccccc2)c2ccccc2)C1,–,inactive: 2.2%

Structure (SMILES),Potency,"activity change, negative = inhibition"
O=C(COC(=O)c1c2c(nc3ccccc13)/C(=C/c1ccco1)CC2)NC1CCCC1,active: 8.91 µM,–
O=C1NC(=Nc2ccc3ccccc3c2)S/C1=C/c1ccco1,active: 17.8 µM,–
N#C/C(=C\c1ccc(O)c(O)c1)C(=O)NCc1ccccc1,–,inactive: -16.3%
C[C@@]12CCC3c4ccc(O)cc4CCC3C1CCC2O (stereo partly specified),–,inactive: 3.1%
CC(N=C(NC#N)Nc1ccncc1)C(C)(C)C (stereo unspecified),inactive,–
O=C1C=C(NCCN2CCOCC2)C(=O)c2cnccc21,active: 25.1 µM,–
Cc1ccc(-c2nn(-c3ccccc3)cc2/C=C2\SC(=S)N(CCCCCC(=O)O)C2=O)o1,active: 28.2 µM,–
CC1=C(/C=C/C(C)=C\C=C\C(C)=C\C(=O)O)C(C)(C)CCC1,inactive,–
O=C(c1ccccc1)c1ccc2n1CC[C@H]2C(=O)O,–,inactive: -2.27% [at 21.4 µM]
O=C(CSc1ccc(-c2ccco2)nn1)c1ccccc1,active: 25.1 µM,–
Brc1ccc2c(c1)OCCOCCOc1cc(Br)ccc1OCCOCCOCCO2,active: 15.8 µM,–
Cc1ccc2nc(/C(C#N)=C/c3ccc(-c4cccc([N+](=O)[O-])c4)o3)[nH]c2c1,active: 22.4 µM,–
CC(=O)O[C@@H](C)C[N+](C)(C)C,–,inactive: 0.857% [at 21.4 µM]
CCCCCCCCCCCCC/C=C/[C@@H](O)[C@@H](N)CO,–,inactive: -1.45%
O=C(O)CP(=O)(O)O,–,inactive: -6.1%
Cn1ccc2cc3c(cc21)CCN3C(=O)Nc1cccnc1,–,inactive: -22.1%
Cc1cn([C@H]2C[C@H](N=[N+]=[N-])[C@H](CO)O2)c(=O)[nH]c1=O,–,inactive: 2.43%
NCCNC(=O)c1ccc(Cl)cc1,–,inactive: 3.64%
COc1cc(/C=C2\CCc3c2nc2ccccc2c3C(=O)O)cc(OC)c1OC,active: 14.1 µM,–
O=C(CCl)Nc1ccccc1Sc1ccccc1,active: 8.91 µM,–
NS(=O)(=O)c1cccc2c1c([N+](=O)[O-])cc1[nH]c(=O)c(=O)[nH]c12,inactive,–
O=C(c1ccccc1)c1ccc2n1CCC2C(=O)O (stereo unspecified),inactive,–
O=[N+]([O-])c1cccc2c[nH]nc12,–,inactive: -27.2%
O=C1NC(=O)C(c2ccccc2)(c2ccccc2)N1,inactive,–

Structure (SMILES),Potency,"activity change, negative = inhibition"
N#Cc1sc2nc(-c3ccccc3)cc(-c3ccco3)c2c1N,active: 3.98 µM,–
CCCOc1ccccc1-c1nc2n[nH]nc2c(=O)[nH]1,inactive,–
Cc1oc(-c2ccc(Cl)cc2)cc1-c1nn2c(-c3ccoc3C)nnc2s1,active: 10 µM,–
C/C=C\C=C/C(=O)Nc1cccc(C2=NOC3(C2)C[C@@H](C(N)=O)N(C(=O)/C=C/C=C\C)C3)c1 (stereo partly specified),active: 10 µM,–
C[C@]12CCC3c4ccc(O)cc4CCC3C1CCC2=O (stereo partly specified),–,inactive: -1.66%
COc1cccc(-n2c(SCc3cc(=O)oc4cc(O)c(O)cc34)nc3ccccc3c2=O)c1,active: 10 µM,–
COc1cc(OC)c(OC)cc1/C=N/Nc1ncnc2c1[nH]c1ccccc12,active: 22.4 µM,–
CCN1CCC[C@@H]1CNC(=O)c1cc(S(N)(=O)=O)ccc1OC,–,inactive: -1.79%
CCc1nn2c(=O)cc(COc3ccc(/C=C4\C(=N)N5N=C(C)SC5=NC4=O)cc3)nc2s1,active: 12.6 µM,–
Cc1cc(C)n(Cc2ccc(C(=O)N/N=C/c3ccc(-c4ccc([N+](=O)[O-])cc4)o3)o2)n1,active: 15.8 µM,–
CC#C[C@]1(O)CC[C@H]2[C@@H]3CCC4=CC(=O)CCC4=C3[C@@H](c3ccc(N(C)C)cc3)C[C@@]21C,inactive,–
COc1ccc(Cl)cc1C(=O)NCCc1ccc(S(=O)(=O)NC(=O)NC2CCCCC2)cc1,inactive,–
O/C=c1\ccc2cccc3nc(C(F)(F)F)nc1c23,active: 14.1 µM,–
O=C(CSc1nnc(-c2ccco2)c(-c2ccco2)n1)Nc1ccccc1,active: 14.1 µM,–
O=C(COc1ccc([N+](=O)[O-])cc1)Nc1nnc(-c2cccnc2)s1,active: 15.8 µM,–
CCCCn1c(NC(=O)c2ccccc2)c(C#N)c2nc3ccccc3nc21,active: 1.58 µM,–
O=C(O)c1ccc(COc2ccccc2/C=C2/NC(=O)N(c3cccc(Cl)c3)C2=O)cc1,active: 20 µM,–
C1CCC(N=C(NC23CC4CC(CC(C4)C2)C3)N2CCOCC2)CC1,–,inactive: -1.16%
COC(=O)[C@H]1[C@@H]2C[C@@H]3c4[nH]c5ccccc5c4CCN3C[C@H]2CC[C@H]1O,–,inactive: 2.05%
CC(=O)S[C@H]1CC2=CC(=O)CC[C@@]2(C)[C@H]2CC[C@@]3(C)[C@H](CC[C@]34CCC(=O)O4)[C@@H]12,–,inactive: -10.6% [at 21.4 µM]
O=C1CC[C@H](N2C(=O)c3ccccc3C2=O)C(=O)N1,inactive,–
Cc1ccccc1Nc1cc2ccccc2c(=O)[nH]1,active: 28.2 µM,–
CNCC(O)c1ccc(O)c(O)c1 (stereo unspecified),–,inactive: -4.71%
CC(=O)O[C@@]1(C(C)=O)CCC2C3C=C(Cl)C4=CC(=O)C5CC5[C@@]4(C)C3CC[C@]21C (stereo partly specified),–,inactive: -15.1%
